Assay results reported in PubChem BioAssay (NCI).
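96-well plates; 48 h exposure; 5 concentrations. Endpoints by linear interpolation between flanking doses. Not reached: highest tested concentration assigned. GI50 is the concentration that inhibits growth by half. TGI marks complete inhibition of growth.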

The molecules below were run on NCI-H322M lung (assay: DTP human tumour cell line panel, 48 h).

| SMILES | GI50 [µM] | TGI [µM] |
| --- | --- | --- |
| COc1cc(/C=C/C(=O)c2ccc(NC(=O)CN3C(=O)NC(C)(c4ccccc4)C3=O)cc2)cc(OC)c1OC (configuration not stated) | 15.3 | 69.3 |
| COc1ccc(C(=O)/C=C/c2ccc(OCc3ccc(F)cc3)c(OC)c2)cc1OC | 3.48 | > 100 |
| N/C(=N\c1nc2ccccc2s1)NC(=O)Nc1ccccc1[N+](=O)[O-] | 0.479 | 18.1 |
| COc1cc(/C=N/NC(=O)c2ccc3nc(-c4ccc(Cl)cc4)[nH]c3c2)cc(OC)c1OC | 8.29 | 33.1 |
| O=C([Se]C1C=CCCC1)c1ccc(C(=O)[Se]C2C=CCCC2)s1 (configuration not stated) | 0.409 | 4.03 |
| Cn1cc(-c2cc(N)n3nc(-c4c[nH]c5ccccc45)cc3n2)c2cc(F)ccc21 | 2.46 | 8.24 |
